# Results as given in PubChem BioAssay AID1508642 (National Center for Advancing Translational Sciences (NCATS), 2021).
# The whole screen tested about 43,000 compounds, of which about 200 (0.47%) were called active. Not shown: some 12% with an inconclusive outcome. The call rests on the fitted dose curve; in most records, active means well fitted cell-killing curve with a large enough effect; inconclusive means small, poorly fitted or top-dose-only effect, or effect the other way; inactive means flat fitted curve, though single readings scatter. The list shows a part of the results.
# Test: Cell viability qHTS assay in S16 Pmp22-F2sN cells; further: nearly all actives have a fitted effect of over 65% in size
# Details: S16 Pmp22-F2sN Schwann cells (luciferase reporters placed in the Pmp22 gene) viability, CellTiter-Glo, 24 h; series mostly up to 57.5 µM; activity change, negative = cytotoxicity: at the top concentration
# Outline: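 S16 Schwann cells carrying the Pmp22-F2sN reporter, seeded in 1536-well format, were exposed to library compounds for 24 h at 37C. Viability was read as CellTiter-Glo luminescence after 15 min at room temperature.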
# On the % scale 0 is the no-effect control and ±100 the full control effect; potency means the concentration at half of the fitted maximal effect.
Structure (SMILES),"activity change, negative = cytotoxicity",Potency
COc1ccc(Nc2ncc3c(n2)CCN(C(=O)OC(C)(C)C)C3)cc1,inactive: -0.142%,–
COc1ccccc1CN1CCN(C2CCN(C(=O)NC(C)C)CC2)C(=O)C1=O,inactive: 8.16%,–
Cc1ccc(Nc2cc(C(=O)NCc3cccs3)c3ccccc3n2)c(C)c1,inactive: -1.94%,–
Cc1ccc(CCNC(=O)c2cc(-c3ccc(Cl)cc3)n[nH]2)cc1,inactive: 0.506%,–
Cc1ccc(NC(=O)c2ccc3[nH]c(C)cc(=O)c3c2)c(C)c1,inactive: 8.1%,–
Cc1ccc(NC(=O)Cc2coc3c(C)c(C)ccc23)cc1Cl,inactive: -4.12%,–
CCOc1ccccc1C(=O)N(Cc1cccs1)c1ccc(Cl)cc1,inactive: -13.5%,–
COc1cc2ccccc2cc1C(=O)Nc1ccc2oc(-c3ccccc3)nc2c1,inactive: -2.13%,–
COc1ccc(C)cc1NC(=O)CC(=O)Nc1ccc2nc3n(c(=O)c2c1)CCCCC3,inactive: -14.9%,–
O=C(NCCc1csc(-c2ccc(F)cc2)n1)c1c(F)cccc1Cl,inactive: 5.35%,–
O=C(COC(=O)c1cc(-c2ccccc2)nc2c(Cl)cccc12)c1ccc(F)cc1,inactive: -0.232%,–
CCOc1ccc(-n2c(=O)c3c(C)c(C)sc3n(Cc3cc(=O)n4cc(Cl)ccc4n3)c2=O)cc1,inactive: -8.51%,–
CC(C)CSc1oc(-c2ccco2)nc1S(=O)(=O)c1ccc(Br)cc1,inactive: -10.3%,–
O=C(NCc1ccco1)c1ccc2c(c1)N(Cc1ccccc1F)C(=O)c1ccccc1S2=O (configuration not stated),inactive: 2.81%,–
COc1ccc(NC(=O)CSC2=Nc3ccccc3C3=NC(CCC(=O)NCCc4ccccc4)C(=O)N23)c(OC)c1 (configuration not stated),inactive: 0.152%,–
CCn1cc(C(=O)N2CCN(c3ccc(OC)cc3)CC2)c(=O)c2cc(S(=O)(=O)N(C)C3CCCCC3)ccc21,inactive: -13.5%,–
COc1cccc(CNC(=O)c2nn(C)c3c2CS(=O)(=O)c2ccccc2-3)c1,inactive: -29.2%,–
COc1ccc(CNC(=O)c2cc(C)nc3c2c(C)nn3-c2cccc(Cl)c2C)cc1,inactive: -2.05%,–
CC(C)CN(CCCNC(=O)c1cn(C)c2ccc(S(=O)(=O)N(C)C3CCCCC3)cc2c1=O)CC(C)C,inactive: -4.04%,–
COc1cccc(NC(=O)C(CCSC)NC(=O)C2CCC(C)CC2)c1 (configuration not stated),inactive: 1.74%,–
Cc1cccc(OC(=O)c2cc(-c3ccc(Cl)cc3)on2)c1C,inactive: 1.22%,–
COC(=O)c1ccc(NC(=O)CSc2n[nH]c(CC(C)C)n2)cc1,inactive: 0.129%,–
COc1ccc(CNC(=O)c2cc3cccc(OC)c3oc2=O)cc1,inactive: -1.66%,–
Cc1ccc(-c2nn(CC(=O)Nc3cccc(C(F)(F)F)c3)c(=O)c3ccccc23)cc1,inactive: 3.58%,–
Cc1ccc(CNC(=O)c2ccc3c(c2)N(Cc2cccc(C)c2)C(=O)CS3)cc1,inactive: 10.8%,–

Structure (SMILES),"activity change, negative = cytotoxicity",Potency
Cc1oc(C)c2c(=O)cc(-c3ccc4c(c3)OCO4)cc(OC(=O)c3ccc(Cl)cc3)c12,inactive: 2.74%,–
Cc1ccc(-c2nonc2NC(=O)c2ccco2)cc1C,inactive: -4.68%,–
Cc1ccc(-c2nc3ccccc3[nH]2)cc1NC(=O)COc1cccc(C)c1C,inactive: 25%,–
COc1ccc(C)cc1NC(=O)CCn1nc(C)cc1C,inactive: 8.68%,–
Cc1cccc(C)c1NC(=O)CSCc1cnn(-c2ccccc2)c1-n1cccc1,inactive: -20%,–
CCC(Sc1nc2ccccc2c2nc(CCc3c(C)n[nH]c3C)nn12)C(=O)Nc1ccccc1F (configuration not stated),inactive: -6.48%,–
COc1cccc(-c2noc(-c3cc4ccccc4oc3=O)n2)c1OC,inactive: 9.68%,–
O=C(NCc1ccc2c(c1)CCN2C(=O)c1ccc(F)cc1)c1c(F)cccc1F,inactive: 6.07%,–
COC(=O)c1ccc(NC(=O)C(=O)NCCc2csc3nc(-c4ccccc4F)nn23)cc1,inactive: 6.15%,–
CCN(CC)S(=O)(=O)c1ccc2c(c1)N(CC(=O)Nc1cccc(C)c1C)C(=O)C1CCCN21 (configuration not stated),inactive: -6.42%,–
COc1cc(OC)c(NC(=O)C(CC(C)C)N2Cc3ccccc3C2=O)cc1Cl (configuration not stated),inactive: -10.1%,–
CCOc1ccccc1NC(=O)CSc1cn(CC(=O)N2CCCCCC2)c2ccccc12,inactive: 6.86%,–
Nc1nonc1-c1nc2ccccc2n1CC(=O)Nc1cccc(C(F)(F)F)c1,inactive: -17.2%,–
Cc1ccc(NC(=O)CCN2C(=O)c3ccccc3Sc3ncccc32)cc1,inactive: -0.0364%,–
Cc1cccc(Cn2cc3c(=O)n(CC(=O)Nc4cccc(C)c4C)nc-3c3cc(F)ccc32)c1,inactive: 1.46%,–
Cc1c(C(=O)Nc2cccc(C(F)(F)F)c2)sc2nc3n(c(=O)c12)CCC3,inactive: -11.9%,–
COc1ccc(NC(=O)c2cc(C3CC3)nc3c2c(C)nn3-c2ccccc2)c(OC)c1,inactive: -0.355%,–
CC(C)Cc1nn2c(=O)cc(COC(=O)c3cccc(NC(=O)c4ccccc4)c3)nc2s1,inactive: 4.72%,–
Cc1cccc(N2CCN(C(=O)c3cc4ccc5cccnc5c4[nH]3)CC2)c1C,inactive: 8.69%,–
COCCn1c(C)cc(O)c(C(c2ccccc2)N2CCCCC2)c1=O (configuration not stated),inactive: -1.61%,–
CCc1ccccc1NC(=O)N1CCN(Cc2nc3ccc(C)cc3o2)CC1,inactive: 11%,–
Cc1ccc(-n2ncc3c(Nc4ccc(Oc5ccccc5)cc4)ncnc32)cc1,inactive: -1.54%,–
Clc1ccccc1CNCCCSc1nnnn1-c1ccccc1,inactive: 3.76%,–
CCOc1ccc(/C=C/c2nc(C#N)c(NCc3ccc(OC)cc3)o2)cc1,inactive: 4.69%,–
Cc1noc(C)c1S(=O)(=O)N(CC(=O)Nc1ccc(C(F)(F)F)cc1)c1ccc(C(C)C)cc1,inactive: -6.49%,–

Structure (SMILES),"activity change, negative = cytotoxicity",Potency
CCOCCCNC(=O)Cn1ncc2c([nH]c3ccccc32)c1=O,inactive: 9.61%,–
CN(C)c1ccc(-c2nc3ccc(Cl)cn3c2Nc2ccc3c(c2)OCCO3)cc1,inactive: 7.34%,–
CCCN(CCC)c1cc(C)nc2nc(-c3ccc(C(C)(C)C)cc3)nn12,inactive: -0.248%,–
Cc1cc(C)cc(N2C(=O)CSC23C(=O)N(CC(N)=O)c2ccccc23)c1 (configuration not stated),inactive: 2.98%,–
Cn1nc(-c2ccccc2)c(-c2ccccc2)c(C(=O)Nc2ccccc2C(N)=O)c1=O,inactive: -8.14%,–
CC(=O)N1CCc2cc(Br)cc(S(=O)(=O)CCC(=O)N3CCN(c4cccc(C)c4C)CC3)c21,inactive: -7.39%,–
Cc1ccc(C)c(N2CCN(C3(c4ccccc4)C(=O)c4ccccc4C3=O)CC2)c1,inactive: -10.1%,–
CCOCCCNC(=O)Cn1ncc2c([nH]c3ccc(C)cc32)c1=O,inactive: 0.459%,–
COCCN(Cc1ccc(C)c(Br)c1)S(=O)(=O)c1ccc2[nH]c(=O)ccc2c1,inactive: 6.37%,–
CCCN(c1ccccc1F)S(=O)(=O)c1cc(-c2cc(C)no2)ccc1C,inactive: -5.58%,–
CC(C)(C)C1CCc2c(sc(NC(=O)c3cc(-c4ccc(F)cc4)on3)c2C#N)C1 (configuration not stated),inactive: 8.92%,–
Cc1cc(C)cc(-n2ccn3cnnc3c2=O)c1,inactive: -0.459%,–
Cc1ccc(OCC(=O)OCc2cc(=O)n3nc(C4CC4)sc3n2)cc1C,inactive: -12.2%,–
CCC(C(=O)NCCc1ccc(OC)c(OC)c1)n1nc(C)c2sc3ccccc3c2c1=O (configuration not stated),inactive: 8.88%,–
CCCCCCSc1nc(N)c2c3c(sc2n1)CCCC3C (configuration not stated),inactive: -0.85%,–
CSc1cccc(Nc2cc(C(=O)NC3CCCCC3)c3ccccc3n2)c1,inactive: -20.2%,–
CCc1ccc2occ(CC(=O)Nc3c(C(=O)c4ccc(F)cc4)oc4ccccc34)c2c1,inactive: 9.74%,–
COc1ccc(C)cc1NC(=O)Cn1c(=O)oc2cc(S(=O)(=O)N3CCCCCC3)ccc21,inactive: -0.773%,–
CCOc1ccc(C(=O)N2CC(=O)Nc3ccc(F)cc3C2c2ccc(F)cc2)cc1 (configuration not stated),inactive: 8.66%,–
CCc1cccc(C)c1NC(=O)c1cc(CN2CCCC2)on1,inactive: 1.08%,–
CC(C)NC(=O)C1CCCN(S(=O)(=O)c2ccc3c(ccn3C)c2)C1 (configuration not stated),inactive: 2.69%,–
COCCn1c(C)cc(O)c(C(c2cccc(F)c2)N2CCN(c3ccccc3)CC2)c1=O (configuration not stated),inactive: 2.07%,–
COc1ccc(-c2oc3ncn4nc(COc5ccc(Cl)cc5)nc4c3c2-c2ccc(OC)cc2)cc1,inactive: -0.931%,–
CCc1nnc2c(Nc3cc(OC)c(Cl)cc3OC)nc3ccccc3n12,inactive: 2.37%,–
COc1ccc(OC(=O)c2cn(-c3cccc(OC)c3)c(=O)c3ccccc23)cc1,inactive: 3.4%,–

Structure (SMILES),"activity change, negative = cytotoxicity",Potency
Cc1ccc(OC(C)C(=O)N2CCN(CCc3ccccn3)CC2)cc1C (configuration not stated),inactive: 1.82%,–
O=S(=O)(NCC(c1ccco1)S(=O)(=O)c1cccs1)c1ccccc1 (configuration not stated),–,active: 31.6 µM
Cc1cc(Cl)ccc1NC(=O)C1CCCN(c2nnc(C)c3c(C)n(-c4ccccc4)nc23)C1 (configuration not stated),inactive: 12.5%,–
Cc1cc(C)c(NC(=O)C(C)n2nc(C)c3sc4ccccc4c3c2=O)c(C)c1 (configuration not stated),inactive: -1.87%,–
COc1cccc(N2CC(NC(=O)c3cccs3)CC2=O)c1 (configuration not stated),inactive: 0.449%,–
CC(CCc1ccccc1)NC(=O)CSc1n[nH]c(-c2ccccc2Cl)n1 (configuration not stated),inactive: -5.61%,–
CCc1ccc(CNC(=O)c2ccc(Cn3c(=O)c4cccn4c4cccnc43)cc2)cc1,inactive: 5.51%,–
CCCc1nnc(NC(=O)CSc2nnc3c4ccccc4n(CC)c3n2)s1,inactive: 4.6%,–
Cc1cccc(OCC(=O)Nc2ccc3nc(SCc4ccccc4)sc3c2)c1,inactive: 27.9%,–
Cc1nc2ccccc2n1CCc1nc2c3ccccc3nc(SCc3ccccc3F)n2n1,inactive: -2.42%,–
O=C(Nc1ncc(Cc2ccc(F)cc2)s1)c1ccc2c(c1)CC(c1ccccc1)OC2=O (configuration not stated),inactive: 3.57%,–
CCCCCn1c(CCCNC(=O)c2ccccc2)nc2ccccc21,inactive: -19.1%,–
CCCC(=O)N1c2nc(-c3ccco3)nn2C2(CCCCC2)[C@@H]2CCCC[C@@H]21,inactive: 0.214%,–
COc1cccc(NC(=O)Cn2c(=O)n(-c3ccc(C)cc3)c(=O)c3ccccc32)c1,inactive: -8.51%,–
CCN1C(=O)C(Cc2nc3ccccc3c(=O)n2-c2cccc(C)c2)c2ccccc21 (configuration not stated),inactive: -0.79%,–
CC(C)Oc1ccc(C(=O)NCCc2csc(-c3cccc(F)c3)n2)cc1,inactive: -4.91%,–
Cc1ccccc1NC(=O)c1c(C)oc2ccc(O)c(CN(C)Cc3ccccc3)c12,inactive: -21.1%,–
Cc1ccc(-c2noc(-c3ccccc3OCC(=O)Nc3ccccc3[N+](=O)[O-])n2)cc1,inactive: 0.492%,–
Cc1cccc(N(C)C(=O)Cn2cnc3nc4c(cc3c2=O)CCCC4)c1,inactive: -0.119%,–
Cc1nn(C)c2c1c(C(F)(F)F)cc(=O)n2CC(=O)Nc1ccc(F)cc1F,inactive: -6.14%,–
Cc1ccccc1NC(=O)CSc1nccn1C,inactive: 14.3%,–
Cc1nnc(N2CCC(C(=O)NC3CCC(C)CC3)CC2)c2nn(-c3ccc(Cl)cc3)c(C)c12 (configuration not stated),inactive: -1.83%,–
